Patent US10266577B2, “GLP-1 derivatives, and uses thereof” (Novo Nordisk A/S, priority 2013, dated 2019)
For at least one compound, name, drawing or mass did not settle the structure. Numbered stars: 1 amine (or outer) side, 2 acyl side, 3 side chain; on linkers, the order of the positions; unused ones are H or OH. Square brackets hold non-standard residues; d marks the D form. Side chains are listed from the residue outwards. Peptide text beside a SMILES is read from it. * marks the point of attachment. Hexadecanoyl(16-SO3H) = O=C(CCCCCCCCCCCCCCCS(=O)(=O)O)*; C18 diacid = O=C(O)CCCCCCCCCCCCCCCCC(=O)*; γGlu = O=C(O)[C@H](CCC(=O)[*:2])N[*:1]; Cya = N[C@@H](CS(=O)(=O)O)C(=O)O; AEEA = NCCOCCOCC(=O)O; Aib = CC(C)(N)C(=O)O

Test system: db/db mice
Test: Pharmacodynamic single-dose study in db/db mice (blood glucose and body weight)
Type: in vivo, mouse
Conditions: for % change in blood glucose 48 h: 48 h vs basal level; for % change in blood glucose 48 h / % change in body weight 48 h: negative = reduction; for % change in body weight 48 h: 48 h vs basal

Structure (SMILES)	% change in blood glucose 48 h (single dose 100 nmol/kg s.c.) [%]	% change in body weight 48 h (single dose 100 nmol/kg s.c.) [%]	change in blood glucose after 24 hours (single dose 10 nmol/kg s.c., 24 h) [%]	% change in body weight 48 h (single dose 10 nmol/kg s.c.) [%]	% change in blood glucose 48 h (single dose 10 nmol/kg s.c.) [%]
CC[C@H](C)[C@H](NC(=O)[C@H](Cc1ccccc1)NC(=O)[C@H](CCC(=O)O)NC(=O)[C@H](CCCNC(=N)N)NC(=O)[C@H](C)NC(=O)[C@H](C)NC(=O)[C@H](CCC(N)=O)NC(=O)[C@H](CCCCNC(=O)COCCOCCNC(=O)COCCOCCNC(=O)[C@H](CS(=O)(=O)O)NC(=O)CCCCCCCCCCCCCCCS(=O)(=O)O)NC(=O)[C@H](CCC(=O)O)NC(=O)[C@H](CC(C)C)NC(=O)[C@H](Cc1ccc(O)cc1)NC(=O)[C@H](CCCCNC(=O)COCCOCCNC(=O)COCCOCCNC(=O)[C@H](CS(=O)(=O)O)NC(=O)CCCCCCCCCCCCCCCS(=O)(=O)O)NC(=O)[C@H](CO)NC(=O)[C@@H](NC(=O)[C@H](CC(=O)O)NC(=O)[C@H](CO)NC(=O)[C@@H](NC(=O)[C@H](Cc1ccccc1)NC(=O)[C@@H](NC(=O)CNC(=O)[C@H](CCC(=O)O)NC(=O)C(C)(C)NC(=O)[C@@H](N)Cc1c[nH]cn1)[C@@H](C)O)[C@@H](C)O)C(C)C)C(=O)N[C@@H](CCCCNC(=O)COCCOCCNC(=O)COCCOCCNC(=O)[C@H](CS(=O)(=O)O)NC(=O)CCCCCCCCCCCCCCCS(=O)(=O)O)C(=O)N[C@@H](Cc1c[nH]c2ccccc12)C(=O)N[C@@H](CC(C)C)C(=O)N[C@H](C(=O)N[C@@H](CCCNC(=N)N)C(=O)NCC(=O)N[C@@H](CCCNC(=N)N)C(=O)NCC(=O)O)C(C)C [Example 2] (H-H[Aib]EGTFTSDVSK([AEEA-AEEA-Cya-Hexadecanoyl(16-SO3H)])YLEK([AEEA-AEEA-Cya-Hexadecanoyl(16-SO3H)])QAAREFIK([AEEA-AEEA-Cya-Hexadecanoyl(16-SO3H)])WLVRGRG-OH; N-terminus and C-terminus assumed)	−37.0	−4.9	–	–	–
CC[C@H](C)[C@H](NC(=O)[C@H](Cc1ccccc1)NC(=O)[C@H](CCCCNC(=O)COCCOCCNC(=O)COCCOCCNC(=O)CC[C@H](NC(=O)CCCCCCCCCCCCCCCCC(=O)O)C(=O)O)NC(=O)[C@H](CCCNC(=N)N)NC(=O)[C@H](C)NC(=O)[C@H](C)NC(=O)[C@H](CCC(N)=O)NC(=O)[C@H](CCC(=O)O)NC(=O)[C@H](CCC(=O)O)NC(=O)[C@H](CC(C)C)NC(=O)[C@H](Cc1ccc(O)cc1)NC(=O)[C@H](CO)NC(=O)[C@H](CO)NC(=O)[C@@H](NC(=O)[C@H](CC(=O)O)NC(=O)[C@H](CO)NC(=O)[C@@H](NC(=O)[C@H](Cc1ccccc1)NC(=O)[C@@H](NC(=O)CNC(=O)[C@H](CCC(=O)O)NC(=O)C(C)(C)NC(=O)[C@@H](N)Cc1c[nH]cn1)[C@@H](C)O)[C@@H](C)O)C(C)C)C(=O)N[C@@H](CCCCNC(=O)COCCOCCNC(=O)COCCOCCNC(=O)CC[C@H](NC(=O)CCCCCCCCCCCCCCCCC(=O)O)C(=O)O)C(=O)N[C@@H](Cc1c[nH]c2ccccc12)C(=O)N[C@@H](CC(C)C)C(=O)N[C@H](C(=O)N[C@@H](CCCNC(=N)N)C(=O)NCC(=O)N[C@@H](CCCNC(=N)N)C(=O)N[C@@H](CCCCNC(=O)COCCOCCNC(=O)COCCOCCNC(=O)CC[C@H](NC(=O)CCCCCCCCCCCCCCCCC(=O)O)C(=O)O)C(=O)O)C(C)C [Example 10] (H-H[Aib]EGTFTSDVSSYLEEQAARK([AEEA-AEEA-γGlu-C18 diacid])FIK([AEEA-AEEA-γGlu-C18 diacid])WLVRGRK([AEEA-AEEA-γGlu-C18 diacid])-OH; N-terminus and C-terminus assumed)	−13.0	−1.8	–	–	–
CC[C@H](C)[C@H](NC(=O)[C@H](Cc1ccccc1)NC(=O)[C@H](CCC(=O)O)NC(=O)[C@H](CCCNC(=N)N)NC(=O)[C@H](C)NC(=O)[C@H](C)NC(=O)[C@H](CCC(N)=O)NC(=O)[C@H](CCCCNC(=O)COCCOCCNC(=O)COCCOCCNC(=O)[C@@H](N)CCCCNC(=O)[C@@H](N)CCCCNC(=O)CCCCCCCCCCCCCCCS(=O)(=O)O)NC(=O)[C@H](CCC(=O)O)NC(=O)[C@H](CC(C)C)NC(=O)[C@H](Cc1ccc(O)cc1)NC(=O)[C@H](CCCCNC(=O)COCCOCCNC(=O)COCCOCCNC(=O)[C@@H](N)CCCCNC(=O)[C@@H](N)CCCCNC(=O)CCCCCCCCCCCCCCCS(=O)(=O)O)NC(=O)[C@H](CO)NC(=O)[C@@H](NC(=O)[C@H](CC(=O)O)NC(=O)[C@H](CO)NC(=O)[C@@H](NC(=O)[C@H](Cc1ccccc1)NC(=O)[C@@H](NC(=O)CNC(=O)[C@H](CCC(=O)O)NC(=O)C(C)(C)NC(=O)[C@@H](N)Cc1c[nH]cn1)[C@@H](C)O)[C@@H](C)O)C(C)C)C(=O)N[C@@H](CCCCNC(=O)COCCOCCNC(=O)COCCOCCNC(=O)[C@@H](N)CCCCNC(=O)[C@@H](N)CCCCNC(=O)CCCCCCCCCCCCCCCS(=O)(=O)O)C(=O)N[C@@H](Cc1c[nH]c2ccccc12)C(=O)N[C@@H](CC(C)C)C(=O)N[C@H](C(=O)N[C@@H](CCCNC(=N)N)C(=O)NCC(=O)N[C@@H](CCCNC(=N)N)C(=O)NCC(=O)O)C(C)C [Example 14]	−63.6	−7.2	–	–	–
CC[C@H](C)[C@H](NC(=O)[C@H](Cc1ccccc1)NC(=O)[C@H](CCC(=O)O)NC(=O)[C@H](CCCNC(=N)N)NC(=O)[C@H](C)NC(=O)[C@H](C)NC(=O)[C@H](CCC(N)=O)NC(=O)[C@H](CCCCNC(=O)COCCOCCNC(=O)COCCOCCNC(=O)COCCOCCNC(=O)COCCOCCNC(=O)COCCOCCNC(=O)[C@@H](N)CCCCNC(=O)[C@@H](N)CCCCNC(=O)CCCCCCCCCCCCCCCCCCC(=O)O)NC(=O)[C@H](CCC(=O)O)NC(=O)[C@H](CC(C)C)NC(=O)[C@H](Cc1ccc(O)cc1)NC(=O)[C@H](CCCCNC(=O)COCCOCCNC(=O)COCCOCCNC(=O)COCCOCCNC(=O)COCCOCCNC(=O)COCCOCCNC(=O)[C@@H](N)CCCCNC(=O)[C@@H](N)CCCCNC(=O)CCCCCCCCCCCCCCCCCCC(=O)O)NC(=O)[C@H](CO)NC(=O)[C@@H](NC(=O)[C@H](CC(=O)O)NC(=O)[C@H](CO)NC(=O)[C@@H](NC(=O)[C@H](Cc1ccccc1)NC(=O)[C@@H](NC(=O)CNC(=O)[C@H](CCC(=O)O)NC(=O)C(C)(C)NC(=O)[C@@H](N)Cc1c[nH]cn1)[C@@H](C)O)[C@@H](C)O)C(C)C)C(=O)N[C@@H](CCCCNC(=O)COCCOCCNC(=O)COCCOCCNC(=O)COCCOCCNC(=O)COCCOCCNC(=O)COCCOCCNC(=O)[C@@H](N)CCCCNC(=O)[C@@H](N)CCCCNC(=O)CCCCCCCCCCCCCCCCCCC(=O)O)C(=O)N[C@@H](Cc1c[nH]c2ccccc12)C(=O)N[C@@H](CC(C)C)C(=O)N[C@H](C(=O)N[C@@H](CCCNC(=N)N)C(=O)NCC(=O)N[C@@H](CCCNC(=N)N)C(=O)NCC(=O)O)C(C)C [Example 15]	–	–	−9.8	−3.8	–
CC[C@H](C)[C@H](NC(=O)[C@H](Cc1ccccc1)NC(=O)[C@H](CCC(=O)O)NC(=O)[C@H](CCCNC(=N)N)NC(=O)[C@H](C)NC(=O)[C@H](C)NC(=O)[C@H](CCC(N)=O)NC(=O)[C@H](CCCCNC(=O)COCCOCCNC(=O)COCCOCCNC(=O)COCCOCCNC(=O)COCCOCCNC(=O)COCCOCCNC(=O)[C@@H](N)CCCCNC(=O)[C@@H](N)CCCCNC(=O)[C@@H](N)CCCCNC(=O)CCCCCCCCCCCCCCCCC(=O)O)NC(=O)[C@H](CCC(=O)O)NC(=O)[C@H](CC(C)C)NC(=O)[C@H](Cc1ccc(O)cc1)NC(=O)[C@H](CCCCNC(=O)COCCOCCNC(=O)COCCOCCNC(=O)COCCOCCNC(=O)COCCOCCNC(=O)COCCOCCNC(=O)[C@@H](N)CCCCNC(=O)[C@@H](N)CCCCNC(=O)[C@@H](N)CCCCNC(=O)CCCCCCCCCCCCCCCCC(=O)O)NC(=O)[C@H](CO)NC(=O)[C@@H](NC(=O)[C@H](CC(=O)O)NC(=O)[C@H](CO)NC(=O)[C@@H](NC(=O)[C@H](Cc1ccccc1)NC(=O)[C@@H](NC(=O)CNC(=O)[C@H](CCC(=O)O)NC(=O)C(C)(C)NC(=O)[C@@H](N)Cc1c[nH]cn1)[C@@H](C)O)[C@@H](C)O)C(C)C)C(=O)N[C@@H](CCCCNC(=O)COCCOCCNC(=O)COCCOCCNC(=O)COCCOCCNC(=O)COCCOCCNC(=O)COCCOCCNC(=O)[C@@H](N)CCCCNC(=O)[C@@H](N)CCCCNC(=O)[C@@H](N)CCCCNC(=O)CCCCCCCCCCCCCCCCC(=O)O)C(=O)N[C@@H](Cc1c[nH]c2ccccc12)C(=O)N[C@@H](CC(C)C)C(=O)N[C@H](C(=O)N[C@@H](CCCNC(=N)N)C(=O)NCC(=O)N[C@@H](CCCNC(=N)N)C(=O)NCC(=O)O)C(C)C [Example 17]	–	–	–	−1.4	−3.8
CC[C@H](C)[C@H](NC(=O)[C@H](Cc1ccccc1)NC(=O)[C@H](CCC(=O)O)NC(=O)[C@H](CCCNC(=N)N)NC(=O)[C@H](C)NC(=O)[C@H](C)NC(=O)[C@H](CCC(N)=O)NC(=O)[C@H](CCCCNC(=O)COCCOCCNC(=O)COCCOCCNC(=O)COCCOCCNC(=O)COCCOCCNC(=O)[C@@H](N)CCCCNC(=O)[C@@H](N)CCCCNC(=O)CCCNC(=O)CCCCCCCCCCCCCCCS(=O)(=O)O)NC(=O)[C@H](CCC(=O)O)NC(=O)[C@H](CC(C)C)NC(=O)[C@H](Cc1ccc(O)cc1)NC(=O)[C@H](CCCCNC(=O)COCCOCCNC(=O)COCCOCCNC(=O)COCCOCCNC(=O)COCCOCCNC(=O)[C@@H](N)CCCCNC(=O)[C@@H](N)CCCCNC(=O)CCCNC(=O)CCCCCCCCCCCCCCCS(=O)(=O)O)NC(=O)[C@H](CO)NC(=O)[C@@H](NC(=O)[C@H](CC(=O)O)NC(=O)[C@H](CO)NC(=O)[C@@H](NC(=O)[C@H](Cc1ccccc1)NC(=O)[C@@H](NC(=O)CNC(=O)[C@H](CCC(=O)O)NC(=O)C(C)(C)NC(=O)[C@@H](N)Cc1c[nH]cn1)[C@@H](C)O)[C@@H](C)O)C(C)C)C(=O)N[C@@H](CCCCNC(=O)COCCOCCNC(=O)COCCOCCNC(=O)COCCOCCNC(=O)COCCOCCNC(=O)[C@@H](N)CCCCNC(=O)[C@@H](N)CCCCNC(=O)CCCNC(=O)CCCCCCCCCCCCCCCS(=O)(=O)O)C(=O)N[C@@H](Cc1c[nH]c2ccccc12)C(=O)N[C@@H](CC(C)C)C(=O)N[C@H](C(=O)N[C@@H](CCCNC(=N)N)C(=O)NCC(=O)N[C@@H](CCCNC(=N)N)C(=O)NCC(=O)O)C(C)C [Example 18]	–	–	–	−2.2	−0.2
